Test results: patent US20220204602A1 (published 2022)

How the values were obtained:
[1] = target: T1, Cyno FcRn (Cynomolgus, UniProt Q8SPV9 24-297; Q8SPW0 21-119); assay: SPR (Biacore); pH 6.0
T1 chain 1: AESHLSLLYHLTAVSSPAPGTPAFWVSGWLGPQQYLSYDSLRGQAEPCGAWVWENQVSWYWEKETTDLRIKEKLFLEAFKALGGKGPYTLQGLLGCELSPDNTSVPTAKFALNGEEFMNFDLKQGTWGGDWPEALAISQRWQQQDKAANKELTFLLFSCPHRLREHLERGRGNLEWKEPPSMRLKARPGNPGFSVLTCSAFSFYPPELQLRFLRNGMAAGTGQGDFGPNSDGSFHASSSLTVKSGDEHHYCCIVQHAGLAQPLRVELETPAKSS
T1 chain 2: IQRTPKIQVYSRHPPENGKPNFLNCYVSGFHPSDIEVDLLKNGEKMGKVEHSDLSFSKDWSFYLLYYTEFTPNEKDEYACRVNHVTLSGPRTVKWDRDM

[2] = target: T2, human complement C5 (human, UniProt P01031 19-673; P01031 partial chain); assay: BLI (Gator); pH 7.4
[3] = target: T2, human complement C5; assay: BLI (Gator); pH 5.8

B1: anti-C5 mAb/FH SCR1-5 fusion protein FMEH-IgG4PLA-FH1-5 (other)
heavy: QVQLVQSGAEVKKPGASVKVSCKASGYTITDYHFDWVRQAPGQGLEWMGDISMNYGYHIYNQKFKDRVTMTTDTSTSTAYMELRSLRSDDTAVYYCARRDIRYSGNSYKWYFDEWGQGTMVTVSSASTKGPSVFPLAPCSRSTSESTAALGCLVKDYFPEPVTVSWNSGALTSGVHTFPAVLQSSGLYSLSSVVTVPSSSLGTKTYTCNVDHKPSNTKVDKRVESKYGPP[letters of human IgG4 Fc with S228P M428L N434A (EU numbers) not shown]EDCNELPPRRNTEILTGSWSDQTYPEGTQAIYKCRPGYRSLGNVIMVCRKGEWVALNPLRKCQKRPCGHPGDTPFGTFTLTGGNVFEYGVKAVYTCNEGYQLLGEINYRECDTDGWTNDIPICEVVKCLPVTAPENGKIVSSAMEPDREYHFGQAVRFVCNSGYKIEGDEEMHCSDDGFWSKEKPKCVEISCKSPDVINGSPISQKIIYKENERFQYKCNMGYEYSERGDAVCTESGWRPLPSCEEKSCDNPYIPNGDYSPLRIKHRTGDEITYQCRNGFYPATRGNTAKCTSTGWIPAPRCTL
light: DIQLTQSPSFLSASVGDRVTITCRTSKSISKHLAWYQQKPGKAPKLLIYSGSTLQSGVPSRFSGSGSGTEFTLTISSLQPEDFATYYCQQHNEYPYTFGQGTKLEIK
- Ka [1]: 2.56e+07 M⁻¹
- Kd [2]: 1.51 nM
- Kd [3]: 15 nM
